According to article PMC4336329 (PLoS ONE, 2015):
Among all 310,000 compounds or so, about 14,000 (4.5%) showed an effect of 50% or more. Effects have a minus sign here. The list shows a part of the results.

Biological target: human ether-à-go-go-related gene (hERG) potassium channel (human, UniProt Q12809)
Assay: primary screen, population patch clamp on CHO cells stably expressing hERG
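Also: peak tail current of the secondary pulse compared with the same well before compound.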

Sequence of human ether-à-go-go-related gene (hERG) potassium channel (Q12809 whole entry, looked up): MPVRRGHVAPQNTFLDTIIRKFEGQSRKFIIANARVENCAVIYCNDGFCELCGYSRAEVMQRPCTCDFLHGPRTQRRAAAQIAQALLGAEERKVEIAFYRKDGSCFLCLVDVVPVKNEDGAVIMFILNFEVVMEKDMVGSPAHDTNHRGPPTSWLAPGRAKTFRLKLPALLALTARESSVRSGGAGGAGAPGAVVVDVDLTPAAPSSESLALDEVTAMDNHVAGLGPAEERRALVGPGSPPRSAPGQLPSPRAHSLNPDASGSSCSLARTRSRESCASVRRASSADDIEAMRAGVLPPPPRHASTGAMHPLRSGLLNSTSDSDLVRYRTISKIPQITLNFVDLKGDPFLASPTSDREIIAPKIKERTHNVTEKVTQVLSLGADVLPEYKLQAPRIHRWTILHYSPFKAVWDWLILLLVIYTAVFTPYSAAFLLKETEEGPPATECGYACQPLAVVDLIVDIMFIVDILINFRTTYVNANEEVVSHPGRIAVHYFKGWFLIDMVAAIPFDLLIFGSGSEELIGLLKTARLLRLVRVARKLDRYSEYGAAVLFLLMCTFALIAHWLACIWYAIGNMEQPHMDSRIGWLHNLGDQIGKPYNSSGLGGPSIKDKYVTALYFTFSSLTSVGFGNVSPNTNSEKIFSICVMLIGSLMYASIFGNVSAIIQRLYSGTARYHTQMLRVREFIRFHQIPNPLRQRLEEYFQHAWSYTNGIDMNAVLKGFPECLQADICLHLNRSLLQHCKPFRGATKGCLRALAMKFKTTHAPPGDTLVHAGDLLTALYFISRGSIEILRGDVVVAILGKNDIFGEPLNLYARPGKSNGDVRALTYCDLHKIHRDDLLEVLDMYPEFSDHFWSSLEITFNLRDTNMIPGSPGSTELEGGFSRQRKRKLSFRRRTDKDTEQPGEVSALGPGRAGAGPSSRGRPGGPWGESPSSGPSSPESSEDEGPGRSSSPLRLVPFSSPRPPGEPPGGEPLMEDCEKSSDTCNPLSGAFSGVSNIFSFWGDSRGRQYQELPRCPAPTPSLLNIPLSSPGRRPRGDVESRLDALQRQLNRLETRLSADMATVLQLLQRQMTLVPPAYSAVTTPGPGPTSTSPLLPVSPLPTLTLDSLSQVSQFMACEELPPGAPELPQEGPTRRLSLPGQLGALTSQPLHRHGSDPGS

SMILES	hERG current change (%, negative = inhibition) at 10uM
COc1cc(/C=C/c2cc(C(=O)O)c3ccccc3n2)ccc1OC(F)F	2.9%
O=C(COC(=O)C1(c2ccccc2)CCCC1)N1CCNC1=O	-5.73%
COc1ccc(CC(O)CC2c3c(cc4c(c3OC)OCO4)CCN2C)cc1.Cl (stereo not shown)	-78.9%
CCOCCCNC(=O)C1CCCN1C(=O)NC1CCCCC1 (stereo not shown)	20.7%
CCn1c(C2CC(=O)N(c3ccc(C)c(C)c3)C2)nc2ccccc21 (stereo not shown)	-11.5%
CC1(c2ccc(Cl)cc2)NC(=O)N(CC(=O)Nc2ccc(N3CCCCC3)cc2)C1=O (stereo not shown)	6.47%
O=C(COC(=O)/C=C/c1cccc(Br)c1)NCc1ccco1	8.59%
CC(c1ccccc1)N1CC(C(=O)NC2CCCC2)CC1=O (stereo not shown)	-34.3%
COc1cc(/C=N/NC(=O)c2ccc(CN3C(=O)c4cccc5cccc3c45)cc2)cc(OC)c1O	1.25%
CN(C)CCN(C(=O)c1ccc2c(c1)OCCO2)c1nc2c(Cl)cccc2s1.Cl	-59.3%
Cc1ccccc1OCC(=O)N1CCc2ccccc2C1	0.601%
Cc1ccc(NC(=O)C2=NNC(=O)CC2)cc1F	6.29%
CCn1c(=O)c([N+](=O)[O-])c(NCCN(C)C)c2ccccc21	18.2%
CCOC(=O)CN1N=C(/C=C/c2ccc(C(C)C)cc2)CCC1=O	-3.53%
O=C(N/N=C/c1cccc([N+](=O)[O-])c1)c1cc(-c2ccc3c(c2)OCO3)n[nH]1	3.15%
CN(C)c1cc(-c2cccc([N+](=O)[O-])c2)oc(=O)c1Cl	9.17%
OC[C@H]1OC(O)[C@@H](O)[C@@H](O)[C@@H]1O (stereo partly shown)	3.37%
O=C(NC1(C(F)(F)F)NC(=O)N(C2CCCCC2)C1=O)C1CC1 (stereo not shown)	-0.163%
Cc1[nH]c2ccccc2c1C(=O)C(=O)N1c2ccccc2CC1C (stereo not shown)	-18.6%
COc1ccc(NC(=S)N(CCCN2CCOCC2)Cc2ccco2)cc1	-7.89%
COC(=O)CC1C(=O)NCCN1C(=S)NC(=O)c1ccccc1[N+](=O)[O-] (stereo not shown)	-5.29%
Cc1ccc(S(=O)(=O)NC(=O)COc2ccc([N+](=O)[O-])cc2)cc1	4.55%

SMILES	hERG current change (%, negative = inhibition) at 10uM
COc1cc(OC)cc(-c2nn[nH]n2)c1	6.92%
CCc1c(C)nc(N)n2c(SCC(=O)N3CCCC(C)C3)nnc12 (stereo not shown)	-10.3%
COc1cc(S(=O)(=O)n2nnc3ccccc32)c(OC)cc1Cl	-1.71%
Cc1ccc(F)c(NC(=O)CCc2ccccc2)c1	13%
CC(C)c1ccc(NC(=O)c2ccc(Br)o2)cc1	3.82%
O=C(CSc1ccc2c(c1)OCCO2)Nc1cccc(S(=O)(=O)N2CCCCC2)c1	-7.5%
CN(c1ccc(C(=O)Nc2cccc(O)c2)cc1)S(=O)(=O)c1ccccc1	-22.1%
COc1ccc(CC(=O)NCC(=O)N/N=C(/C)c2ccco2)cc1	-3.58%
N=c1c2c(-c3ccccc3)c(-c3ccccc3)oc2ncn1CCN1CCOCC1	-70.8%
O=C(CSc1nc2c(cnn2-c2ccccc2)c(=O)[nH]1)c1ccc(Cl)cc1	4.95%
O=C(CSc1nc(=O)n2ccccc2n1)NCc1ccccc1	-1.77%
CN(C)S(=O)(=O)c1ccc(C(=O)Oc2coc(CSc3ncccn3)cc2=O)cc1	-28.6%
O=C(O)c1cccc(NC(=O)c2cc(S(=O)(=O)N3CCOCC3)cs2)c1	19.6%
CS(=O)(=O)Nc1ccc2c(c1)OCC(=O)N2Cc1ccccc1	-25.5%
Cc1ccc(NC(C#N)c2ccccc2OCc2ccccc2)cc1 (stereo not shown)	-1.76%
O=C(O)CCCN=CC1=C(O)C(C(=O)c2ccccc2)CCC1=O (stereo not shown)	20.5%
COc1ccc(N=Nc2c(-c3ccc(OC)cc3)[nH]oc2=O)cc1	12.5%
COCCN1C(=O)c2ccccc2C(C(=O)N2CCN(c3ccccc3)CC2)C1c1ccc(F)cc1 (stereo not shown)	-9.73%
CC(=O)Cc1nsc(NC(=O)c2ccc(COc3ccccc3C)o2)n1	0.496%
CC(C)(C)NC(=O)CN(Cc1cccs1)C(=O)CNS(=O)(=O)c1ccccc1	24.2%
CC(C)(C)NC(=O)CSCc1ccc(Br)cc1	-4.63%
COc1ccc(S(=O)(=O)N2CCCCC2)cc1NC(=O)c1cncc(Br)c1	5.32%

SMILES	hERG current change (%, negative = inhibition) at 10uM
COc1ccc(-c2cc(C(=O)Nc3c(C)nn(Cc4ccccc4Cl)c3C)no2)cc1	15%
O=C(COC(=O)C1CCC(=O)N1)Nc1ccc(Br)cc1 (stereo not shown)	12%
CC(=O)c1c(NC(=O)c2ccccc2)[nH]c(-c2ccccc2)nc1=S	2.15%
Cc1cc(C(=O)NC(=S)Nc2ccccc2N2CCOCC2)ccc1[N+](=O)[O-]	12.9%
CCCN(C(=O)c1cc2c(s1)CCC2)c1c(N)n(Cc2ccccc2)c(=O)[nH]c1=O	-1.61%
Cc1ccc(OCc2cc(C(=O)N(C)Cc3cnn(-c4ccccc4C)c3)no2)cn1	-21.1%
COC(=O)c1ccc2c(=O)n(CCN3CCOCC3)c(SCC(=O)Nc3ccc(C)cc3)nc2c1	-69.5%
Cn1c(CNC(=O)CCNC(=O)c2ccc(Br)cc2)cc(=O)n(C)c1=O	4.04%
COc1cccc2c(=O)c(C(=O)NCc3cccs3)c[nH]c12	22.1%
O=C(CO/N=C/c1ccc(OC(F)F)cc1)NCc1cccs1	-62.6%
Cc1cccc(C)c1NC(=O)CN(C)C(=O)C(c1ccccc1)c1ccccc1	-36.9%
CCn1c(SC2CCOC2=O)nnc1-c1ccc(Cl)cc1 (stereo not shown)	9.29%
COc1cc2c(=O)n(CCC(=O)NCC3CCCO3)c(=O)n(CC(=O)Nc3ccc(C)cc3C)c2cc1OC (stereo not shown)	15.8%
O=C(CSCc1ccccc1Cl)NN1C(=O)c2ccccc2C1=O	-20.8%
Cc1ccc(CNC(=S)Nc2cc(C(=O)O)ccc2C)cc1	25.9%
O=C(Nc1ccccc1)c1ccc(Nc2c([N+](=O)[O-])cc([N+](=O)[O-])c3ccccc23)cc1	6.49%
O=C(c1cccc(COCC(F)(F)C(F)F)c1)N1CCN(c2ccccc2)CC1	-42.8%
COc1ccc(CNc2nc3ccccc3s2)cc1OC	3.16%
Cc1ccc(-c2nc(N)sc2-c2ccccc2)cc1C	11.6%
COc1ccc(COc2ccccc2C(=O)NCc2ccccc2)cc1F	26.4%
Cc1sc2ncn(CC(=O)NCc3ccco3)c(=O)c2c1-c1ccccc1	-11.8%
CC1C(=O)N2CCCc3cc(S(=O)(=O)NCc4ccc(F)cc4)cc1c32 (stereo not shown)	-23.4%

SMILES	hERG current change (%, negative = inhibition) at 10uM
COc1ccc(CC(NC(C)=O)C(=O)NC2CCN(S(=O)(=O)c3ccc(NC(C)=O)cc3)CC2)cc1 (stereo not shown)	-12%
Nn1c(Cc2ccccc2)nc2ccccc2c1=O	4.99%
Cc1ccc2c(c1)C(c1ccccc1)=NCC(=O)N2	-12.8%
CC(C)Cn1c(-c2ccc(Br)o2)n[nH]c1=S	8.25%
Cn1c(=O)c(S(=O)(=O)C(C)(C)C)c(O)c2ccccc21	9.35%
CSc1ncccc1C(=O)Nc1nnc(C2CC2)s1	-4.22%
O=S(=O)(Nc1cccc2nsnc12)c1ccccc1	-4.22%
Cc1ccc(N/C=C/C(=O)c2ccco2)c(O)c1	8.63%
CCOc1ccc(C(=O)N2CCN(c3ccccc3)CC2)cc1OCC	-32.4%
COc1ccccc1Nc1nnc(SCC(=O)N2CC(=O)Nc3ccccc32)s1	0.894%
O=C1OCC2=C1C(c1ccc(F)cc1)CC(=O)N2c1ccc(F)cc1 (stereo not shown)	-25.3%
O=C1CCC(c2ccccc2)N1C(=O)c1cccnc1 (stereo not shown)	-3.5%
O=C(NC1CCCCCCC1)C1c2ccccc2C(=O)N1Cc1cccs1 (stereo not shown)	-4.16%
Cc1c(NS(=O)(=O)N2CCCC2)c(=O)n(-c2ccccc2)n1C	-4.23%
COc1ccc(CSc2nnnn2C)cc1F	-6.74%
CCCCCCCCCCC(=O)NNC(=O)c1c(O)c2ccccc2n(CC)c1=O	4.85%
CCc1nc(SCC(=O)OC(C)C)c2ccccc2n1	2.3%
COC(=O)C1=C(C(=O)OC)[C@@H]2Nc3ccccc3[C@@]23C[C@@H](C(=O)OC)N=C3N1	3.41%
COc1cccc(N2CCN(C(=O)c3cc4c(s3)CCCCC4)CC2)c1	-2.33%
CN(C)c1ccc(C(c2ccc(N(C)C)cc2)c2ccc([N+](=O)[O-])cc2)cc1	3.74%
COc1ccccc1/C=C/CN1CCN(c2ccccc2)CC1	-15.6%
COc1ccccc1N1CSC2=C(C#N)C(c3ccc(SC)cc3)CC(=O)N2C1 (stereo not shown)	17.1%
